Laboratory results published in article PMC4336329 (PLoS ONE, 2015).
The whole screen tested about 310,000 compounds, of which about 2,200 (0.71%) showed an effect of 50% or more. The effect is printed as a negative number. The list shows a part of the results.

The molecules below were run against human ether-à-go-go-related gene (hERG) potassium channel (human, UniProt Q12809) (assay: primary screen, population patch clamp on CHO cells stably expressing hERG).
human ether-à-go-go-related gene (hERG) potassium channel, sequence (Q12809 whole entry, looked up): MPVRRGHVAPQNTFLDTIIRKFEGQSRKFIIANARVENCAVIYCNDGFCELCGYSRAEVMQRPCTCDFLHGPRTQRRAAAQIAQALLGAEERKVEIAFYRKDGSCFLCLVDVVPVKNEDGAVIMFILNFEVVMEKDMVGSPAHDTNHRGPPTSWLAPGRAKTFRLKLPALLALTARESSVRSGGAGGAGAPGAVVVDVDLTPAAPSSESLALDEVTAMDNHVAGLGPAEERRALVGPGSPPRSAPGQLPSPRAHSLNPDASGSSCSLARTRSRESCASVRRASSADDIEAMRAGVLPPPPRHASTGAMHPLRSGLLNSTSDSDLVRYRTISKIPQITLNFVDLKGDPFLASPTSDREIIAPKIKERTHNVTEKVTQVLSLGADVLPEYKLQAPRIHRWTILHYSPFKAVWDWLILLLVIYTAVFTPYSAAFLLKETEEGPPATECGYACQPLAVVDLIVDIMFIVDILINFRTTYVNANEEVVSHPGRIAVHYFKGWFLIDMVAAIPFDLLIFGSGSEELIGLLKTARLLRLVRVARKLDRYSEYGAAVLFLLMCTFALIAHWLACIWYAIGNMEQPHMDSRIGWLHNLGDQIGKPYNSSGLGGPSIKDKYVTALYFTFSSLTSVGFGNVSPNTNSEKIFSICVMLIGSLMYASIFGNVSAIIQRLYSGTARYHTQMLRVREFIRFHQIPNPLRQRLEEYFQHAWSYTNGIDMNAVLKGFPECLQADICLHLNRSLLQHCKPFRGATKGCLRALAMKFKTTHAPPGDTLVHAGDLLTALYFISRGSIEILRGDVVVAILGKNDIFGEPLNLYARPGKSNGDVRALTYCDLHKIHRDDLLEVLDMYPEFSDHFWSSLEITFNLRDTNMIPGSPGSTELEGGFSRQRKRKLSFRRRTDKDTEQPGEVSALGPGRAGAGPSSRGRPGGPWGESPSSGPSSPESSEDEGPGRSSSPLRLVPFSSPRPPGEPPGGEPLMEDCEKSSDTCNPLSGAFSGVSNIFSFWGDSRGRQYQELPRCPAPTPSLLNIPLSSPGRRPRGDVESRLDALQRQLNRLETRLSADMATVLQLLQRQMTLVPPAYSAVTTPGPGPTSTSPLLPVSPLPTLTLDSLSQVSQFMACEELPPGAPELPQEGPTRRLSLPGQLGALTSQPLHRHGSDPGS

| Compound | hERG current change (%, negative = inhibition) at 1uM [%] |
| --- | --- |
| CN1C(=O)C(=Cc2ccc(N3CCCCCC3)o2)C(=O)N(C)C1=S | 19.9 |
| O=C(Nc1c(C(=O)N2CCOCC2)cnn1-c1ccccc1)c1cccc(F)c1 | 4.72 |
| O=C/C(=C\Nc1ccc(C(=O)N2CCOCC2)cc1)c1nc2ccccc2o1 | 2.18 |
| COc1ccc(CN2CCCC(C(=O)c3cccc(C(F)(F)F)c3)C2)cc1O (centres unmarked) | -6.2 |
| CCOC(=O)N1CCN(C(=O)c2ccc(C)c(S(=O)(=O)Nc3cccc(C)c3C)c2)CC1 | -13.5 |
| CCN(CC)S(=O)(=O)c1ccc(Cl)c(NC(=O)COC(=O)c2ccc([N+](=O)[O-])o2)c1 | 5.15 |
| Cc1ccc(-c2c(C#N)c(N)nc3c2CCCCC3)cc1 | 14 |
| CSc1nsc(NC(=O)OCc2ccc(Cl)cc2)n1 | 15.1 |
| COc1cccc(CNS(=O)(=O)c2ccc(S(=O)(=O)N3CCCC3)cc2)c1 | 11.5 |
| COC(=O)n1c(=O)oc2ccccc21 | 5.88 |
| CN(C)c1nc(Nc2ccccc2)nc(N(C)C)n1 | 14.3 |
| COc1ccccc1CC(=O)Nc1cccc2ccccc12 | 13.7 |
| COc1cccc2cc(C(=O)NCc3ccc(C)cc3)c(=O)oc12 | 18.8 |
| O=C(CNC(=O)N1CC(=O)Nc2ccccc21)Nc1ccc(Cl)cc1 | 13.4 |
| Cc1ccc(S(=O)(=O)N2CCCCC2)cc1NC(=O)c1ccc2c(c1)OCO2 | 7.98 |
| CCOc1ccc2sc(NS(=O)(=O)c3ccc(OC)c(OC)c3)nc2c1 | 11.1 |
| Cc1cc2c(c(=O)n1Cc1ccco1)C(c1cccnc1)C(C#N)=C(N)O2 (centres unmarked) | 1.21 |
| Cn1c(=O)c(C(=O)NCc2ccc(Cl)cc2)c(O)c2ccccc21 | 8.26 |
| Cc1ccc(C)c(S(=O)(=O)N2CCCOC2CNC(=O)C(=O)NCc2cccs2)c1 (centres unmarked) | 6.83 |
| CCC[C@H]1COCCS(=O)(=O)N1Cc1ccccc1F | 1.36 |
| Cc1ccccc1C(=O)N/N=C/c1ccc([N+](=O)[O-])s1 | 7.39 |
| CCCc1cc(=O)n2[nH]cnc2n1 | -5.89 |
| CS(=O)(=O)N1CCc2cc(C(=O)N3CCCCC3)ccc21 | 9.8 |

| Compound | hERG current change (%, negative = inhibition) at 1uM [%] |
| --- | --- |
| COc1ccc(C2c3[nH]c4ccccc4c3C[C@H]3C(=O)N(CCCO)CC(=O)N23)cc1OC (some centres unmarked) | 12.8 |
| COc1ccccc1OCC(=O)Nc1ccccc1C(=O)NC1CC1 | 1.98 |
| CCC(COC(=O)c1cc(OC)c(OC)c(OC)c1)(c1ccccc1)N(C)C.O=C(O)/C=C\C(=O)O (centres unmarked) | 11.9 |
| Cc1cc(C(=O)CN2C(=O)C(=O)N(C)C2=O)c(C)n1-c1cccc(S(=O)(=O)N2CCOCC2)c1 | -5.77 |
| CC(=O)Nc1ccc(S(=O)(=O)NNC(=O)CCC(=O)Nc2cc(C)ccc2C)cc1 | 7.67 |
| CC1=C/C(=N\NC(=O)c2ccc(O)cc2)CC1 | 12.5 |
| O=C(NC(=S)NNC(=O)c1ccc(Cl)cc1Cl)c1cccnc1 | 7.07 |
| O=[N+]([O-])c1cc(Br)cc(C=Nc2ccc3c(c2)OCO3)c1O | 12.5 |
| CC12CCC(=O)N1C(C(=O)N1CCN(S(=O)(=O)c3ccc(Br)cc3Cl)CC1)CS2 (centres unmarked) | 8.34 |
| CCOc1ccc(NC(=O)C(C)Sc2nccn2C)cc1 (centres unmarked) | 14.1 |
| CC1(C(=O)O)CCC(C(=O)Nc2ccc(S(N)(=O)=O)cc2)C1(C)C (centres unmarked) | 12.6 |
| O=C(Nc1ccc([N+](=O)[O-])c(NC(=O)c2cccnc2)c1)c1cccnc1 | 11.5 |
| O=C1CC(SCCc2nc3ccccc3[nH]2)C(=O)N1c1ccc(Cl)cc1 (centres unmarked) | -11.7 |
| O=C(COC(=O)C1=NN(c2ccccc2)C(=O)CC1)NCc1ccccc1Cl | -3.73 |
| OCc1cccc(Nc2ncnc3sc4c(c23)CCCCC4)c1 | 8.82 |
| CC(C)Cc1ccc(CN2CCCC(NC(=O)CCn3cnnn3)C2)cc1 (centres unmarked) | -6.73 |
| COc1ccc(S(=O)(=O)NCc2csc(C)n2)cc1 | 8.53 |
| CCCCCC(=O)NC(Cc1ccc(OC)c([N+](=O)[O-])c1)C(=O)O (centres unmarked) | 13.6 |
| COc1ccc(-n2c(C)nc(N)c2C(=O)c2ccccc2)cc1 | 0.326 |
| CCCc1ccc2oc(C(=O)N3CCNC(=O)C3CC(=O)OC)c(C)c2c1 (centres unmarked) | 13 |
| Cc1ccc(NS(=O)(=O)c2ccc(C(=O)N3CCCCCCC3)cc2)cc1 | 20.5 |
| CC1CCCCC1NC(=O)C1CC=CCC1C(=O)O (centres unmarked) | 13.9 |
| CC(=O)Cc1nsc(NC(=O)c2cccs2)n1 | 12.7 |

| Compound | hERG current change (%, negative = inhibition) at 1uM [%] |
| --- | --- |
| CSCCNC(=O)c1ccc(OC2CCN(CCc3ccccc3)CC2)cc1 | -14.5 |
| Cc1cc(S(=O)(=O)N2CCN(C(=O)c3ccco3)CC2)ccc1F | 7.78 |
| Cc1ccc(C)c(S(=O)(=O)N2CCCC2CNC(=O)C(=O)NCC2CCCO2)c1 (centres unmarked) | 1.65 |
| COc1ccc(C(=O)/C=C/Nc2ccccn2)c(OC)c1 | 13.6 |
| CCOC(=O)C(=O)N1CCN(c2nc(-c3ccc(Cl)cc3)cs2)CC1 | 6.6 |
| CS(=O)(=O)N(CC(=O)NCCSc1ccccn1)c1cccc2ccccc12 | -1.54 |
| Cc1ccc2c(=O)[nH]c(Nc3nc(C)cc(-c4ccccc4)n3)nc2c1 | 11.8 |
| CCn1c(=S)sc2c(=O)n(CC(=O)Nc3cccc(Br)c3)c(C)nc21 | 9.24 |
| Cc1cc(C(=O)N2CCN(c3ncccc3C#N)CC2)no1 | 5.86 |
| Cc1ccccc1Nc1nc(N)nc(CN2CCN(c3ccccn3)CC2)n1 | -24.7 |
| CN(C)S(=O)(=O)c1cccc(NC(=O)CN2C(=O)C3C4C=CC(C4)C3C2=O)c1 (centres unmarked) | 5.07 |
| O=C(CCC(=O)N1CCOCC1)NCc1cccc(C(F)(F)F)c1 | 8.17 |
| CC1CN(Cc2c(O)ccc3c(=O)c(-c4ccccc4)coc23)CC(C)O1.Cl (centres unmarked) | 2.87 |
| COc1cnn(-c2ccc(C)cc2)c(=O)c1SCc1ccccc1 | -1.89 |
| CCOC(=O)c1c(-c2ccc(OC)cc2)csc1/N=C/C1C(=O)CCCC1=O | 12.2 |
| CN(C)C(=O)[C@@H]1C[C@H]1[C@@H](NC(=O)OCc1ccccc1)c1ccccc1 | -40.2 |
| O=c1c2cc(Br)ccc2[nH]c(=S)n1Cc1ccccn1 | 7.45 |
| CCOC(=O)c1nn(-c2ccc(Cl)cc2)c(=O)c(C#N)c1C | 17 |
| COc1ccccc1C1NC(=O)NC(C)=C1C(=O)OC1CCC(C)CC1 (centres unmarked) | 12.2 |
| Cc1cc(C)cc(NC(=O)Cn2c(-c3ccccc3Cl)nc3ccccc32)c1 | 5.25 |
| COc1cccc2[nH]c3c(N4CCc5ccccc5C4)ncnc3c12 | 6.59 |
| CCOc1ccccc1NC(=O)/C(C#N)=C/c1c(C)nn(-c2ccccc2)c1Cl | 0.824 |
| CN(C)c1ccc(C2N(c3ccc(F)cc3)C(=O)C3CCCN32)cc1 (centres unmarked) | 9.85 |

| Compound | hERG current change (%, negative = inhibition) at 1uM [%] |
| --- | --- |
| O=[N+]([O-])c1ccc(NCCCN2CCOCC2)nc1 | -0.0778 |
| COc1ccccc1N(CN1CCCC1=O)C(=O)c1ccccc1F | -12.3 |
| CN1/C(=C\C(=O)COC(=O)c2ccc([N+](=O)[O-])o2)C(C)(C)c2ccccc21 | 2.83 |
| O=C(Nc1ccc(Cl)c(Cl)c1)c1ccc(Cn2c(=O)[nH]c3ccsc3c2=O)cc1 | 10.3 |
| Cc1ccccc1CSc1nnc(-c2ccncc2)o1 | 3.37 |
| CCn1nc(C(=O)OCC(=O)NCCN2C(=O)CSC2=O)c2ccccc2c1=O | 3.42 |
| CC(CCc1ccccc1)NC(=O)C(=O)N1CCOCC1 (centres unmarked) | 17.7 |
| CCCC(=O)Nc1nc2nc(-c3ccccc3)cc(-c3ccccc3)n2n1 | 10 |
| CC(=O)N(C)C1=C(N2CCOCC2)C(=O)c2ccccc2C1=O | 5.31 |
| CCCCc1ccc(NC(=S)N2CCN(C(=O)OCC)CC2)cc1 | 8.14 |
| CN(CCCC(=O)O)S(=O)(=O)c1ccc2c(c1)C(=O)c1cc(S(=O)(=O)N(C)CCCC(=O)O)ccc1-2 | 13.5 |
| CCCNC(=S)Nc1ccc(CC(=O)OC)cc1 | 4.55 |
| COc1ccc(CCNC(=O)CCCc2nnc3n(C)c(=O)c4sccc4n23)cc1OC | 12.7 |
| CCSc1cc(N2CCCC2)nc(-c2ccccc2)n1 | 14.2 |
| O=C(NCc1ccccc1Cl)c1csc2c1CCCCC2 | 19.1 |
| CC1(C)CC(=O)C=C(NCCc2c[nH]c3ccccc23)C1 | 10.4 |
| CCN(C(=O)COC(=O)C1CC1)c1c(N)n(Cc2ccccc2)c(=O)[nH]c1=O | -5.78 |
| O=C(c1ccc(NS(=O)(=O)c2cccc([N+](=O)[O-])c2)cc1)N1CCN(C(=O)c2ccco2)CC1 | 1.11 |
| CCc1ccc(NS(=O)(=O)c2c(C)nc3sc(CC)nn3c2=O)cc1 | 8.38 |
| CCCN(C(=O)c1ccc(-n2cncn2)c([N+](=O)[O-])c1)C1CCS(=O)(=O)C1 (centres unmarked) | 19.7 |
